The list shows a part of the results.

For this assay, the target named is T1, MBP-FoxP1dN (Mus musculus, UniProt P58462 326-579).
T1 sequence: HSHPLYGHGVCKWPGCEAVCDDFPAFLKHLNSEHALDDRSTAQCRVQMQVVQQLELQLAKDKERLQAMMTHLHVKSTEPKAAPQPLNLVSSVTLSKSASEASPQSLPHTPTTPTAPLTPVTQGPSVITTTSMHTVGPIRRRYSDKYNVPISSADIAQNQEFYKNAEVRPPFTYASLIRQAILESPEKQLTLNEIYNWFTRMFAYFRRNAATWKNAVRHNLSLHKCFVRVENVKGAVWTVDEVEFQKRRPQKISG
As to the kind of experiment: PD-seq (MBP pull-down with sequencing); 20 mM Tris-HCl pH 7.5, 100 mM NaCl, 1.5 mM MgCl2, 0.4 uM protein, 0.1 uM dsDNA library, 30 min, room temperature, amylose pull-down; high values mean tight binding. The following applies: protein: recombinant; tags: His6-MBP; chain copies: 2; dsDNA, one strand shown. In a few lines:
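A fragment of mouse FoxP3 or FoxP1 without its N-terminus, carrying a His6-MBP tag and produced in E. coli, was combined at 0.4 µM with a 0.1 µM degenerate double-stranded DNA library filled in with Klenow. The mixture sat for 30 min at room temperature in Tris pH 7.5 buffer containing NaCl and MgCl2. Protein–DNA complexes were captured on amylose resin, washed three times, and the DNA was freed with proteinase K, barcoded by PCR and sequenced on Illumina. Binding is expressed as reads-per-million enrichment of pull-down over input, with replicates pooled.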
Regarding “GATGATTGTTCTCCCAGCTGATGAATTACACGATTCGAGTAAACAAATTTTCCTAATCTTTCTGTTCAAGCGCCATCTAC”, the binding signal was 1.08 RPM ratio (pull-down/input).

On to “GATGATTGTTCTCCCAGCTGATGAATTCTCGCAATCGAGTAAACAAATTTTCCTAATCTTTCTGTTCAAGCGCCATCTAC”, for which the binding signal was 1.14 RPM ratio (pull-down/input).

For the sequence “GATGATTGTTCTCCCAGCTGATGAATTCCAATCTTCGAGTAAACAAATTTTCCTAATCTTTCTGTTCAAGCGCCATCTAC”, the binding signal was 0.906 RPM ratio (pull-down/input).

Consider “GATGATTGTTCTCCCAGCTGATGAATTTCACGACTCGAGTAAACAAATTTTCCTAATCTTTCTGTTCAAGCGCCATCTAC”, for which the binding signal was 0.797 RPM ratio (pull-down/input).

As for “GATGATTGTTCTCCCAGCTGATGAATTACTCTATTCGAGTAAACAAATTTTCCTAATCTTTCTGTTCAAGCGCCATCTAC”, the binding signal was 1.15 RPM ratio (pull-down/input).

As for “GATGATTGTTCTCCCAGCTGATGAATTGCTGTCATCGAGTAAACAAATTTTCCTAATCTTTCTGTTCAAGCGCCATCTAC”, the binding signal is 1.33 RPM ratio (pull-down/input).

For “GATGATTGTTCTCCCAGCTGATGAATTCCCTTTTTCGAGTAAACAAATTTTCCTAATCTTTCTGTTCAAGCGCCATCTAC”, the binding signal was 0.858 RPM ratio (pull-down/input).

For the sequence “GATGATTGTTCTCCCAGCTGATGAATTTCCTTATTCGAGTAAACAAATTTTCCTAATCTTTCTGTTCAAGCGCCATCTAC”, the binding signal was 0.891 RPM ratio (pull-down/input).

Turning to “GATGATTGTTCTCCCAGCTGATGAATTCTTAACATCGAGTAAACAAATTTTCCTAATCTTTCTGTTCAAGCGCCATCTAC”, the binding signal is 1.05 RPM ratio (pull-down/input).

Take “GATGATTGTTCTCCCAGCTGATGAATTAGGGCTCTCGAGTAAACAAATTTTCCTAATCTTTCTGTTCAAGCGCCATCTAC”: the binding signal is 0.794 RPM ratio (pull-down/input).

With “GATGATTGTTCTCCCAGCTGATGAATTTTTGTAATCGAGTAAACAAATTTTCCTAATCTTTCTGTTCAAGCGCCATCTAC”, the binding signal was 1.78 RPM ratio (pull-down/input).

Turning to “GATGATTGTTCTCCCAGCTGATGAATTATCCCGTTCGAGTAAACAAATTTTCCTAATCTTTCTGTTCAAGCGCCATCTAC”, the binding signal is 0.988 RPM ratio (pull-down/input).

With “GATGATTGTTCTCCCAGCTGATGAATTTGCCTCATCGAGTAAACAAATTTTCCTAATCTTTCTGTTCAAGCGCCATCTAC”, the binding signal was 1 RPM ratio (pull-down/input).

As to “GATGATTGTTCTCCCAGCTGATGAATTGGATATTTCGAGTAAACAAATTTTCCTAATCTTTCTGTTCAAGCGCCATCTAC”, the binding signal was 0.943 RPM ratio (pull-down/input).

Take “GATGATTGTTCTCCCAGCTGATGAATTCATTCGTTCGAGTAAACAAATTTTCCTAATCTTTCTGTTCAAGCGCCATCTAC”: the binding signal is 0.904 RPM ratio (pull-down/input).

Take “GATGATTGTTCTCCCAGCTGATGAATTTGACATCTCGAGTAAACAAATTTTCCTAATCTTTCTGTTCAAGCGCCATCTAC”: the binding signal is 0.803 RPM ratio (pull-down/input).

As to “GATGATTGTTCTCCCAGCTGATGAATTGGACGTTTCGAGTAAACAAATTTTCCTAATCTTTCTGTTCAAGCGCCATCTAC”, the binding signal was 0.862 RPM ratio (pull-down/input).

As to “GATGATTGTTCTCCCAGCTGATGAATTAATTATGTCGAGTAAACAAATTTTCCTAATCTTTCTGTTCAAGCGCCATCTAC”, the binding signal was 1.07 RPM ratio (pull-down/input).

The values above are taken from publication PMC12820563, “FoxP3 forms a head-to-head dimer in vivo and stabilizes its multimerization on adjacent microsatellites”.
